From PubChem BioAssay AID1346428 (National Center for Advancing Translational Sciences (NCATS), 2018)
Among all 48,000 compounds or so, about 1,200 (2.5%) were called active. Inconclusive results (about 2%) are left out.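 Rule for the calls: active = activation of at least 60% and not above a set upper limit (about 1 call in 100 departs from these limits); inconclusive = activation of 40% to 60%, or above that upper limit; inactive = activation under 40%.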 Some of the results follow.

Target: Probable G-protein coupled receptor 32 (Homo sapiens) (UniProt O75388)
Sequence of UniProt O75388 (O75388 whole entry, looked up): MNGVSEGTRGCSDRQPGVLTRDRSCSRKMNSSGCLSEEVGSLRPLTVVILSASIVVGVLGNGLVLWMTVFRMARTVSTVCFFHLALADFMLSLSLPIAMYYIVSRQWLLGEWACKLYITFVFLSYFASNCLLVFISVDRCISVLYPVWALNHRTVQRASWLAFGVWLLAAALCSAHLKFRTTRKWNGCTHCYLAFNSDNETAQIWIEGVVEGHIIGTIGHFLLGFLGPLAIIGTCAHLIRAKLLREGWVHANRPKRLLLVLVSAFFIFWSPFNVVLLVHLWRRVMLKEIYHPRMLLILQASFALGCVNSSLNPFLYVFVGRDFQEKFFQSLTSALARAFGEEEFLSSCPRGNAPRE
Test: qHTS for Agonists of Human Resolvin D1 Receptor DRV1; note: 0% is about no effect
Details: CHO-K1 GPR32 beta-arrestin PathHunter luminescence, 90 min; at 76.9 µM; stronger effect = higher value; zero percent set by DMSO-only wells
Method in brief: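 Readings come from a cell-based beta-arrestin complementation format: CHO-K1 GPR32 stable cells (2,500/well) treated 90 min with compounds, then beta-Gal substrate added for 1 h before chemiluminescence imaging.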

Row | SMILES | activation
1 | O=C1CCCc2cc(S(=O)(=O)NCC3CCC(C(=O)NCc4ccccc4Cl)CC3)ccc2N1 (configuration not stated) | inactive: 31.3%
2 | O=C(Cn1ccc2ccccc2c1=O)NCCC(=O)Nc1ccc(F)cc1F | inactive: -7.41%
3 | COc1ccccc1N1CCN(C(=O)c2c(C)oc3ncn(CC(C)C)c(=O)c23)CC1 | inactive: -4.79%
4 | Cc1ccc(-n2nc3c(N4CCC(C(=O)NC(C)c5ccccc5)CC4)nnc(C)c3c2C)cc1 (configuration not stated) | inactive: -14.1%
5 | CCOc1ccc(Nc2cc(C)nc3nc(Cc4ccc(Cl)cc4)nn23)cc1 | inactive: -17.9%
6 | Cc1cnc(=O)[nH]c1SCC(=O)Nc1nc2ccccc2s1 | inactive: -2.35%
7 | Cc1ccc2oc(-c3cccc(NC(=O)c4sc5c([N+](=O)[O-])cccc5c4Cl)c3)nc2c1 | inactive: 0.447%
8 | O=c1c2sccc2n(Cc2cc(=O)n3ccccc3n2)c(=O)n1-c1cccc(C(F)(F)F)c1 | inactive: -13.2%
9 | CCOC(=O)c1cnc2ccccc2c1Nc1cccc(OC)c1 | inactive: -6.31%
10 | CCc1ccc(C(=O)NC(Cc2c[nH]c3ccccc23)C(=O)OCC(=O)c2ccc(Br)cc2)cc1 (configuration not stated) | inactive: -23.9%
11 | Cc1cc2c(cc3c(SCC(=O)Nc4cccc(Cl)c4C)nnc(C)n32)o1 | inactive: -15.2%
12 | CNS(=O)(=O)c1cc(-c2nnc(Nc3cc(C)ccc3C)c3ccccc23)ccc1C | inactive: -4.09%
13 | Cc1ccc(-c2nnc(SCC(=O)NCc3ccccc3)nc2-c2ccc(C)cc2)cc1 | inactive: -35.3%
14 | COc1ccccc1N1CCN(C(=O)c2cnc(N3CCCCC3)c3ccccc23)CC1 | inactive: -17.5%
15 | Cc1cc(-c2ccc(C)c(S(=O)(=O)Nc3cccc(C#N)c3)c2)on1 | inactive: 21.9%
16 | COc1ccc(/C=C/C(=O)Nc2ccc(Cl)c(Cl)c2)cc1 | active: 67.6%
17 | O=C(COc1ccc(F)cc1)NCCc1nc2ccccc2[nH]1 | inactive: 27.6%
18 | CCOc1ccc(CCNC(=O)c2c(C)oc3ncn(C)c(=O)c23)cc1 | inactive: -6.86%
19 | CC(C)CCOc1ccccc1Cn1c(=O)sc2ccccc21 | inactive: -29.6%
20 | Cc1ccc(Cl)cc1N1CCN(C(=O)c2ccc3nc(N4CCC(C)CC4)sc3c2)CC1 | inactive: -33.2%
21 | CCOC(=O)c1cc(-c2ccccc2)n(CCC(=O)Nc2nc3c(C)cccc3s2)c1C | inactive: -26.1%
22 | Cc1ccccc1NS(=O)(=O)c1ccc2[nH]c3c(c2c1)CCCCC3 | inactive: 9.66%
23 | O=C(NCCCN1CCOCC1)c1ccc(Cl)cc1 | inactive: 3.78%
24 | Cn1c(=O)c2sccc2n2c(CCCC(=O)Nc3ccc(Oc4ccc(Cl)cc4)cc3)nnc12 | inactive: -3.9%
25 | CCc1ccc(-n2c(=O)c3c(C)c(C(=O)N(C)C)sc3n(Cc3ccccc3F)c2=O)cc1 | inactive: -2.93%
26 | CCOc1ccccc1CNC(=O)CCn1ccc2cc(S(=O)(=O)N3CCCCC3)ccc21 | inactive: -16.6%

Row | SMILES | activation
27 | Cc1ccc(-c2cc3c(N4CCN(c5cc(C)ccc5C)CC4)nccn3n2)cc1 | inactive: 7.04%
28 | CC(=O)N1c2c(cc(Br)cc2S(=O)(=O)N2CCN(c3ccccc3)CC2)CC1C (configuration not stated) | inactive: -1.48%
29 | COc1cccc(CNC(=O)c2ccc(NC(=O)N3CCCCc4ccccc43)cc2)c1OC | inactive: -2.02%
30 | CCOc1cccc(OCCCn2c(-c3ccc(Br)cc3)nc3ccccc3c2=O)c1 | inactive: -4.38%
31 | CC(=O)c1cccc(NC(=O)C(C)n2c(=O)cc(-c3ccccc3)c3c(C)nn(C)c32)c1 (configuration not stated) | inactive: -12.5%
32 | CCOc1ccc(-c2cc(-c3nc(-c4ccc(C)cc4)no3)[nH]n2)cc1 | inactive: -4.26%
33 | CCN1C(=O)c2ccccc2S(=O)(=O)c2ccc(C(=O)NCc3ccccc3Cl)cc21 | inactive: -20.4%
34 | COC(=O)CSc1ncc2c(n1)-c1ccccc1N(Cc1cccc(F)c1)S2(=O)=O | inactive: -4.07%
35 | O=C(Cn1c(=O)oc2cc(S(=O)(=O)N3CCCC3)ccc21)NCc1ccc(F)cc1 | inactive: 18.6%
36 | CCc1cccc(C)c1NS(=O)(=O)c1c(C)nc2sccn2c1=O | inactive: -15.5%
37 | CCOC(=O)C1CCN(C(=O)CSc2n[nH]c(-c3ccc(F)cc3)n2)CC1 | inactive: -13.7%
38 | COc1cccc(CNC(=O)c2c(C)oc3nc(C)nc(N4CCOCC4)c23)c1 | inactive: 0.981%
39 | CCN(CC)S(=O)(=O)c1ccc2c(c1)N(CC(=O)N1CCN(c3ccc(Cl)cc3)CC1)C(=O)CO2 | inactive: -23.5%
40 | O=C(NC1CCCCCC1)C1c2ccccc2C(=O)N1Cc1ccccc1Cl (configuration not stated) | inactive: -11.4%
41 | Cc1cccc(C(=O)Nc2ccc(OCc3cc(=O)n4ccsc4n3)cc2)c1 | inactive: -2.19%
42 | CCOC(=O)c1c(-c2ccccc2)csc1NC(=O)c1cc(-c2ccc(C)c(F)c2)on1 | inactive: -4.99%
43 | O=C(Cn1ccc2cc(S(=O)(=O)N3CCCCCC3)ccc21)NCCc1ccc(Cl)cc1 | inactive: 19.1%
44 | O=C(O)[C@@H]1[C@H]2C[C@H]3c4[nH]c5ccccc5c4CCN3C[C@@H]2CC[C@@H]1O | inactive: -16.1%
45 | CCOc1ccccc1-c1nc(SCC(=O)c2ccc(OC)c(Br)c2)n[nH]1 | inactive: -6.01%
46 | CCc1ccc(NC(=O)C2CCCN(S(=O)(=O)c3c(C)noc3/C=C/N(C)C)C2)cc1 (configuration not stated) | inactive: -26.8%
47 | Cc1ccc(Cl)cc1N1CCN(C(=O)CCCCCn2c(=O)[nH]c3ccccc3c2=O)CC1 | inactive: -6.8%
48 | Cc1ccc(-n2c3c(cc(C(=O)Nc4cccc(Cl)c4)c2=O)C(=O)CC(C)(C)C3)cc1 | inactive: -17.4%
49 | CCN1CCN(C(=O)c2ccc3c(c2)N(Cc2ccccc2F)C(=O)c2ccccc2S3=O)CC1 (configuration not stated) | inactive: 32.3%
50 | CC(C)OC(=O)c1cccnc1SCC(=O)Nc1ccc(C(F)(F)F)cc1Cl | inactive: -14.6%
51 | O=C(NCCCN1CCCCC1)c1[nH]c2ccccc2c1Sc1ccc(Cl)cc1 | inactive: -22.9%
52 | Cc1ccc(NC(=O)C2CCN(S(=O)(=O)c3ccc4c(c3)CCCN4C(=O)C3CCC3)CC2)cc1 | inactive: -11.2%
